# Measurements published in the supplement of paper PMC8728848.
# Some of the results follow.
# B1: AT5G01260(PC)(40) (Arabidopsis thaliana), Q9LFB0 (protein)
# chain: MIGIGRTLTSSSPSKIILEDLPPGIYRYGTEIFTSVPRKTFHHIKFLRLDSAQSSRILKPVPLRSSSIKDSQVNVEDEEIEASNKTVRVRFQLRKECVFGEHFFIVGDDPVFGGLWDPETALPLNWSDGNVWTVDLDLPVGRLVEFKLLLKAQTGEILWQPGPNRALETWETNKTIRICEDWDNADLQMMIEEDFVPYTNISSIGSEDEDEVLGSVQQNSSVVAVENAGYVSDESAQNSSFSIQSEKTMEPSNGALTAREVIKEAMFTEEESPVLVPGLIPLSDLDNEQVEVINEGKAETFPEVDKKQEPKAERNKKAKVKAISLFEKSEQEAVKSVEQRQYNAVEEEQQRLETEPLGTPDVLFENDIQWGRRTLYKLLSNFRLF
# How the values were obtained:
# Assay in all cases: glycan array binding signal (z-score within array); higher = stronger binding
# Settings in all cases: glycan notation: IUPAC condensed, linker removed
# [1] = target: Gal(b1-4)GlcNAc(b1-2)Man(a1-3)[Gal(b1-4)GlcNAc(b1-2)Man(a1-6)]Man(b1-4)GlcNAc(b1-4)GlcNAc
# How it was run: (§1)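 Glycan array binding is given as a within-array Z-score, which can be read as non-binding when negative. The arrays, 3228 of them, came from the Consortium for Functional Glycomics database and were retained only where the protein sequence was available. Z-scores were averaged across arrays of the same protein sequence at different concentrations or buffers and across linkers.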
# [2] = target: Gal(b1-4)GlcNAc(b1-2)Man(a1-3)[Gal(b1-4)GlcNAc(b1-2)Man(a1-6)]Man(b1-4)GlcNAc(b1-4)[Fuc(a1-6)]GlcNAc
# How it was run: as §1
# [3] = target: Gal(b1-4)GlcNAc(b1-2)Man(a1-3)[Gal(b1-4)GlcNAc(b1-2)Man(a1-6)][Gal(b1-4)GlcNAc(b1-4)]Man(b1-4)GlcNAc(b1-4)[Fuc(a1-6)]GlcNAc
# How it was run: as §1
# [4] = target: Gal(b1-4)GlcNAc(b1-2)Man(a1-3)[Gal(b1-4)GlcNAc(b1-2)Man(a1-6)][GlcNAc(b1-4)]Man(b1-4)GlcNAc(b1-4)[Fuc(a1-6)]GlcNAc
# How it was run: as §1
# [5] = target: Gal(b1-4)GlcNAc(b1-2)Man(a1-3)[GlcNAc(b1-2)Man(a1-6)]Man(b1-4)GlcNAc(b1-4)GlcNAc
# How it was run: as §1
# [6] = target: Gal(b1-4)GlcNAc(b1-2)Man(a1-3)[GlcNAc(b1-4)][Gal(b1-4)GlcNAc(b1-2)Man(a1-6)]Man(b1-4)GlcNAc(b1-4)GlcNAc
# How it was run: as §1
# [7] = target: Gal(b1-4)GlcNAc(b1-2)Man(a1-3)[Man(a1-6)]Man(b1-4)GlcNAc(b1-4)GlcNAc
# How it was run: as §1
# [8] = target: Gal(b1-4)GlcNAc(b1-2)Man(a1-6)Man(b1-4)GlcNAc(b1-4)GlcNAc
# How it was run: as §1
# [9] = target: Gal(b1-4)GlcNAc(b1-2)Man(a1-6)[GlcNAc(b1-2)Man(a1-3)]Man(b1-4)GlcNAc(b1-4)GlcNAc
# How it was run: as §1
# [10] = target: Gal(b1-4)GlcNAc(b1-2)Man(a1-6)[Man(a1-3)]Man(b1-4)GlcNAc(b1-4)GlcNAc
# How it was run: as §1
# [11] = target: Gal(b1-4)GlcNAc(b1-2)[Gal(b1-4)GlcNAc(b1-4)]Man(a1-3)[Gal(b1-4)GlcNAc(b1-2)Man(a1-6)]Man(b1-4)GlcNAc(b1-4)GlcNAc
# How it was run: as §1
# [12] = target: Gal(b1-4)GlcNAc(b1-2)[Gal(b1-4)GlcNAc(b1-4)]Man(a1-3)[Gal(b1-4)GlcNAc(b1-2)[Gal(b1-4)GlcNAc(b1-6)]Man(a1-6)]Man(b1-4)GlcNAc(b1-4)GlcNAc
# How it was run: as §1
# [13] = target: Gal(b1-4)GlcNAc(b1-2)[Gal(b1-4)GlcNAc(b1-4)]Man(a1-3)[GlcNAc(b1-4)][Gal(b1-4)GlcNAc(b1-2)Man(a1-6)]Man(b1-4)GlcNAc(b1-4)GlcNAc
# How it was run: as §1
# [14] = target: Gal(b1-4)GlcNAc(b1-2)[Gal(b1-4)GlcNAc(b1-4)]Man(a1-3)[GlcNAc(b1-4)][Gal(b1-4)GlcNAc(b1-2)[Gal(b1-4)GlcNAc(b1-6)]Man(a1-6)]Man(b1-4)GlcNAc(b1-4)GlcNAc
# How it was run: as §1
# [15] = target: Gal(b1-4)GlcNAc(b1-2)[Gal(b1-4)GlcNAc(b1-6)]Man(a1-6)[Gal(b1-4)GlcNAc(b1-2)Man(a1-3)]Man(b1-4)GlcNAc(b1-4)GlcNAc
# How it was run: as §1
# [16] = target: Gal(b1-4)GlcNAc(b1-2)[Gal(b1-4)GlcNAc(b1-6)]Man(a1-6)[Gal(b1-4)GlcNAc(b1-2)Man(a1-3)]Man(b1-4)GlcNAc(b1-4)[Fuc(a1-6)]GlcNAc
# How it was run: as §1
# [17] = target: Gal(b1-4)GlcNAc(b1-2)[Gal(b1-4)GlcNAc(b1-6)]Man(a1-6)[GlcNAc(b1-4)][Gal(b1-4)GlcNAc(b1-2)Man(a1-3)]Man(b1-4)GlcNAc(b1-4)GlcNAc
# How it was run: as §1
# [18] = target: Gal(b1-4)GlcNAc(b1-2)[Gal(b1-4)GlcNAc(b1-6)]Man(a1-6)[GlcNAc(b1-4)][Gal(b1-4)GlcNAc(b1-2)[Gal(b1-4)GlcNAc(b1-4)]Man(a1-3)]Man(b1-4)GlcNAc(b1-4)[Fuc(a1-6)]GlcNAc
# How it was run: as §1
# [19] = target: Gal(b1-4)GlcNAc(b1-3)Gal(b1-3)GalNAc
# How it was run: as §1
binder,measurement,setting,value
B1,glycan array binding signal (z-score),[1],-0.173
same,glycan array binding signal (z-score),[2],-0.516
same,glycan array binding signal (z-score),[3],-0.062
same,glycan array binding signal (z-score),[4],-0.686
same,glycan array binding signal (z-score),[5],-0.702
same,glycan array binding signal (z-score),[6],-0.511
same,glycan array binding signal (z-score),[7],-0.269
same,glycan array binding signal (z-score),[8],-0.602
same,glycan array binding signal (z-score),[9],-0.342
same,glycan array binding signal (z-score),[10],-0.694
same,glycan array binding signal (z-score),[11],-0.542
same,glycan array binding signal (z-score),[12],-0.091
same,glycan array binding signal (z-score),[13],-0.626
same,glycan array binding signal (z-score),[14],-0.552
same,glycan array binding signal (z-score),[15],0.037
same,glycan array binding signal (z-score),[16],0.414
same,glycan array binding signal (z-score),[17],-0.385
same,glycan array binding signal (z-score),[18],-0.294
same,glycan array binding signal (z-score),[19],-0.391
